Like-named read-outs stand apart in the source and are kept apart here.
Key:
Assay in all cases: cell-based or functional assay
[1] = target: T1, TLT-1 18-188 relipidated in 20:80 PS:PC vesicles (human, UniProt Q86YW5 18-188)
T1 sequence: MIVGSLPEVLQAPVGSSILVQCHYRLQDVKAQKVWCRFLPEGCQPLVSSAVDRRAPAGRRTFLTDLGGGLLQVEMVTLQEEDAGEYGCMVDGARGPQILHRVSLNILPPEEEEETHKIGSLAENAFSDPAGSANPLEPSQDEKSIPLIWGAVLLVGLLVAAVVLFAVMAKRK

[2] = target: T2, TLT-1 receptor on the surface of activated human platelets (human, UniProt Q86YW5 16-311)
T2 sequence: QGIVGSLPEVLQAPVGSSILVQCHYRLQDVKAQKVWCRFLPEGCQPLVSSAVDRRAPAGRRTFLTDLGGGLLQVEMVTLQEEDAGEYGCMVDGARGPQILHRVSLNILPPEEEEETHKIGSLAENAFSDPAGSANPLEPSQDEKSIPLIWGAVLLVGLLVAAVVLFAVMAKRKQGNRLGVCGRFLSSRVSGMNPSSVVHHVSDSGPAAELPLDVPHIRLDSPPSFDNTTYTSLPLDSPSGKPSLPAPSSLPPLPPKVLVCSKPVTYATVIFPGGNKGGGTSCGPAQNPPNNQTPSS

[3] = target: T1, TLT-1 18-188 relipidated in 20:80 PS:PC …; remark: listed apart in the source
[4] = target: T2, TLT-1 receptor on the surface of …; remark: listed apart in the source

Binder | FVII-mediated FXa generation % Activity lipidated TLT-1 [1] | FVIIa-mediated FXa generation % Activity lipidated TLT-1 [1] | FVII-mediated FXa generation % Activity activated plts (n 1) [2] | FVIIa-mediated FXa generation % Activity activated plts (n 1) [2] | FVII-mediated FXa generation % Activity lipidated TLT-1 [3] | FVIIa-mediated FXa generation % Activity lipidated TLT-1 [3] | FVII-mediated FXa generation % Activity activated plts (n 2) [4] | FVIIa-mediated FXa generation % Activity activated plts (n 2) [4]
heterodimer#3 LC/HC-his/Fc-sTF (other) light chain: DVVMTQTPLSLPVSLGDQASISCRSSQSLVHRNGNTYFHWALQKPGQSPKLLIYKVSNRFSGVPDRFSGSGSGTDFTLKISRVEAEDLGVYFCSQSTHVPYTFGGGTKLEIKRTVAAPSVFIFPPSDEQLKSGTASVVCLLNNFYPREAKVQWKVDNALQSGNSQESVTEQDSKDSTYSLSSTLTLSKADYEKHKVYACEVTHQGLSSPVTKSFNRGEC heavy chain-His6: EVKLLESGGGLVQPGGSLKLSCAASGFDFSRYWMTWVRQAPGKGLEWIGEINPDSSTINYNPSLKDKFIISRDNAKNTLYLQMSEVRSEDTALYYCASGVFTSWGQGTLVTVSAASTKGPSVFPLAPCSRSTSESTAALGCLVKDYFPEPVTVSWNSGALTSGVHTFPAVLQSSGLYSLSSVVTVPSSSLGTKTYTCNVDHKPSNTKVDKRV[human IgG4 Fc with S228P (EU numbers) and a few adjoining residues omitted] hinge-CH2-CH3-linker-TF: [human IgG4 Fc with S228P (EU numbers) omitted]GSGGGGSGGGGSGGGGSSGTTNTVAAYNLTWKSTNFKTILEWEPKPVNQVYTVQISTKSGDWKSKCFYTTDTECDLTDEIVKDVKQTYLARVFSYPAGNVESTGSAGEPLYENSPEFTPYLETNLGQPTIQSFEQVGTKVNVTVEDERTLVRRNNTFLSLRDVFGKDLIYTLYYWKSSSSGKKTAKTNTNEFLIDVDKGENYCFSVQAVIPSRTVNRKSTDSPVECMGQEKGEFRE | 36% | 54% | 38% | 28% |  |  |  | 
heterodimer#5 LC-sTF/HC/Fc-his (other) light chain-linker-TF: DVVMTQTPLSLPVSLGDQASISCRSSQSLVHRNGNTYFHWALQKPGQSPKLLIYKVSNRFSGVPDRFSGSGSGTDFTLKISRVEAEDLGVYFCSQSTHVPYTFGGGTKLEIKRTVAAPSVFIFPPSDEQLKSGTASVVCLLNNFYPREAKVQWKVDNALQSGNSQESVTEQDSKDSTYSLSSTLTLSKADYEKHKVYACEVTHQGLSSPVTKSFNRGECGSGGGGSGGGGSGGGGSSGTTNTVAAYNLTWKSTNFKTILEWEPKPVNQVYTVQISTKSGDWKSKCFYTTDTECDLTDEIVKDVKQTYLARVFSYPAGNVESTGSAGEPLYENSPEFTPYLETNLGQPTIQSFEQVGTKVNVTVEDERTLVRRNNTFLSLRDVFGKDLIYTLYYWKSSSSGKKTAKTNTNEFLIDVDKGENYCFSVQAVIPSRTVNRKSTDSPVECMGQEKGEFRE heavy chain: EVKLLESGGGLVQPGGSLKLSCAASGFDFSRYWMTWVRQAPGKGLEWIGEINPDSSTINYNPSLKDKFIISRDNAKNTLYLQMSEVRSEDTALYYCASGVFTSWGQGTLVTVSAASTKGPSVFPLAPCSRSTSESTAALGCLVKDYFPEPVTVSWNSGALTSGVHTFPAVLQSSGLYSLSSVVTVPSSSLGTKTYTCNVDHKPSNTKVDKRV[human IgG4 Fc with S228P (EU numbers) omitted] hinge-CH2-CH3-His6: [human IgG4 Fc with S228P (EU numbers) and a few adjoining residues omitted] | 48% | 74% | 31% | 30% |  |  |  | 
mAb 0012-(LC-L6-TF)2;HC2 (other) light chain-linker-TF: DVVMTQTPLSLPVSLGDQASISCRSSQSLVHRNGNTYFHWCLQKPGQSPKLLIYKVSNRFSGVPDRFSGSGSGTDFTLKISRVEAEDLGVYFCSQSTHVPYTFGGGTKLEIKRTVAAPSVFIFPPSDEQLKSGTASVVCLLNNFYPREAKVQWKVDNALQSGNSQESVTEQDSKDSTYSLSSTLTLSKADYEKHKVYACEVTHQGLSSPVTKSFNRGECGGGGSGGGGSGSGGGGSGGGGSGGGGSSGTTNTVAAYNLTWKSTNFKTILEWEPKPVNQVYTVQISTKSGDWKSKCFYTTDTECDLTDEIVKDVKQTYLARVFSYPAGNVESTGSAGEPLYENSPEFTPYLETNLGQPTIQSFEQVGTKVNVTVEDERTLVRRNNTFLSLRDVFGKDLIYTLYYWKSSSSGKKTAKTNTNEFLIDVDKGENYCFSVQAVIPSRTVNRKSTDSPVECMGQEKGEFRE heavy chain: EVKLLESGGGLVQPGGSLKLSCAASGFDFSRYWMTWVRQAPGKGLEWIGEINPDSSTINYTPSLKDKFIISRDNAKNTLYLQMSEVRSEDTALYYCASGVFTSWGQGTLVTVSAASTKGPSVFPLAPCSRSTSESTAALGCLVKDYFPEPVTVSWNSGALTSGVHTFPAVLQSSGLYSLSSVVTVPSSSLGTKTYTCNVDHKPSNTKVDKRV[human IgG4 Fc with S228P (EU numbers) omitted] |  |  |  |  | 67% | 90% | 47% | 26%
mAb 0012-(LC-L7-TF)2;HC2 (other) light chain-linker-TF: DVVMTQTPLSLPVSLGDQASISCRSSQSLVHRNGNTYFHWCLQKPGQSPKLLIYKVSNRFSGVPDRFSGSGSGTDFTLKISRVEAEDLGVYFCSQSTHVPYTFGGGTKLEIKRTVAAPSVFIFPPSDEQLKSGTASVVCLLNNFYPREAKVQWKVDNALQSGNSQESVTEQDSKDSTYSLSSTLTLSKADYEKHKVYACEVTHQGLSSPVTKSFNRGECGGGGSGGGGSGGGGSGSGGGGSGGGGSGGGGSSGTTNTVAAYNLTWKSTNFKTILEWEPKPVNQVYTVQISTKSGDWKSKCFYTTDTECDLTDEIVKDVKQTYLARVFSYPAGNVESTGSAGEPLYENSPEFTPYLETNLGQPTIQSFEQVGTKVNVTVEDERTLVRRNNTFLSLRDVFGKDLIYTLYYWKSSSSGKKTAKTNTNEFLIDVDKGENYCFSVQAVIPSRTVNRKSTDSPVECMGQEKGEFRE heavy chain: EVKLLESGGGLVQPGGSLKLSCAASGFDFSRYWMTWVRQAPGKGLEWIGEINPDSSTINYTPSLKDKFIISRDNAKNTLYLQMSEVRSEDTALYYCASGVFTSWGQGTLVTVSAASTKGPSVFPLAPCSRSTSESTAALGCLVKDYFPEPVTVSWNSGALTSGVHTFPAVLQSSGLYSLSSVVTVPSSSLGTKTYTCNVDHKPSNTKVDKRV[human IgG4 Fc with S228P (EU numbers) omitted] |  |  |  |  | 68% | 86% | 47% | 24%
mAb 0012-(LC-L8-TF)2;HC2 (other) light chain-linker-TF: DVVMTQTPLSLPVSLGDQASISCRSSQSLVHRNGNTYFHWCLQKPGQSPKLLIYKVSNRFSGVPDRFSGSGSGTDFTLKISRVEAEDLGVYFCSQSTHVPYTFGGGTKLEIKRTVAAPSVFIFPPSDEQLKSGTASVVCLLNNFYPREAKVQWKVDNALQSGNSQESVTEQDSKDSTYSLSSTLTLSKADYEKHKVYACEVTHQGLSSPVTKSFNRGECGGGGSGGGGSGGGGSGGGGSGSGGGGSGGGGSGGGGSSGTTNTVAAYNLTWKSTNFKTILEWEPKPVNQVYTVQISTKSGDWKSKCFYTTDTECDLTDEIVKDVKQTYLARVFSYPAGNVESTGSAGEPLYENSPEFTPYLETNLGQPTIQSFEQVGTKVNVTVEDERTLVRRNNTFLSLRDVFGKDLIYTLYYWKSSSSGKKTAKTNTNEFLIDVDKGENYCFSVQAVIPSRTVNRKSTDSPVECMGQEKGEFRE heavy chain: EVKLLESGGGLVQPGGSLKLSCAASGFDFSRYWMTWVRQAPGKGLEWIGEINPDSSTINYTPSLKDKFIISRDNAKNTLYLQMSEVRSEDTALYYCASGVFTSWGQGTLVTVSAASTKGPSVFPLAPCSRSTSESTAALGCLVKDYFPEPVTVSWNSGALTSGVHTFPAVLQSSGLYSLSSVVTVPSSSLGTKTYTCNVDHKPSNTKVDKRV[human IgG4 Fc with S228P (EU numbers) omitted] |  |  |  |  | 70% | 88% | 45% | 25%
mAb 0012-(LC-L9-TF)2;HC2 (other) light chain-linker-TF: DVVMTQTPLSLPVSLGDQASISCRSSQSLVHRNGNTYFHWCLQKPGQSPKLLIYKVSNRFSGVPDRFSGSGSGTDFTLKISRVEAEDLGVYFCSQSTHVPYTFGGGTKLEIKRTVAAPSVFIFPPSDEQLKSGTASVVCLLNNFYPREAKVQWKVDNALQSGNSQESVTEQDSKDSTYSLSSTLTLSKADYEKHKVYACEVTHQGLSSPVTKSFNRGECGGGGSGGGGSGGGGSGGGGSGGGGSGSGGGGSGGGGSGGGGSSGTTNTVAAYNLTWKSTNFKTILEWEPKPVNQVYTVQISTKSGDWKSKCFYTTDTECDLTDEIVKDVKQTYLARVFSYPAGNVESTGSAGEPLYENSPEFTPYLETNLGQPTIQSFEQVGTKVNVTVEDERTLVRRNNTFLSLRDVFGKDLIYTLYYWKSSSSGKKTAKTNTNEFLIDVDKGENYCFSVQAVIPSRTVNRKSTDSPVECMGQEKGEFRE heavy chain: EVKLLESGGGLVQPGGSLKLSCAASGFDFSRYWMTWVRQAPGKGLEWIGEINPDSSTINYTPSLKDKFIISRDNAKNTLYLQMSEVRSEDTALYYCASGVFTSWGQGTLVTVSAASTKGPSVFPLAPCSRSTSESTAALGCLVKDYFPEPVTVSWNSGALTSGVHTFPAVLQSSGLYSLSSVVTVPSSSLGTKTYTCNVDHKPSNTKVDKRV[human IgG4 Fc with S228P (EU numbers) omitted] |  |  |  |  | 64% | 84% | 44% | 24%

Source: patent US20120178908A1 (Novo Nordisk, published 2012)
